pIC50: −log10 of the molar value. Lines with a small IC50 respond at low doses; a limit (>, <) means that the fit lies beyond the doses tested. For AUC the same curve is integrated over the 256-fold range of doses and scaled to a fraction; values near 1 show little effect. For some assays here: Where the top dose is marked as inferred, it comes from the curve model; the source does not state it.
Tests used:
Assay in all cases: Viability of human cancer cell lines after 72 h of drug (GDSC screen)
BMX-IN-1 (QL-XII-61) = compound: C=CC(=O)Nc1cc(-n2c(=O)ccc3cnc4ccc(-c5ccc(NS(C)(=O)=O)cc5)cc4c32)ccc1C [BMX-IN-1 (QL-XII-61)]; settings: top dose 10 µM; top dose inferred
Protocol: (§1)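 Human cancer cell lines in 384-well plates, medium with 10% serum, drug for 72 h over a 256-fold dose range (nine 2-fold or five 4-fold steps up to the top dose). Adherent lines were fixed and stained with the nucleic acid dye Syto60, suspension lines read with resazurin; signal relative to control wells, capped at 0 and 100%. One two-parameter sigmoid per drug and line, fitted in a mixed model over all curves with the slope shared within a line.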

17-AAG = compound: C=CCNC1=C2C[C@@H](C)C[C@H](OC)[C@H](O)[C@@H](C)/C=C(\C)[C@H](OC(N)=O)[C@@H](OC)/C=C\C=C(/C)C(=O)NC(=CC1=O)C2=O [17-AAG]; settings: top dose 1 µM
Protocol: as §1

CCT018159 = compound: CCc1cc(-c2n[nH]c(C)c2-c2ccc3c(c2)OCCO3)c(O)cc1O [CCT018159]; settings: top dose 10 µM; top dose inferred
Protocol: as §1

BIX02189 = compound: CN(C)Cc1cccc(N=C(c2ccccc2)c2c(O)[nH]c3cc(C(=O)N(C)C)ccc23)c1 [BIX02189]; settings: top dose 20 µM; top dose inferred
Protocol: as §1

Dimethyloxalylglycine = compound: COC(=O)CNC(=O)C(=O)OC [Dimethyloxalylglycine]; settings: top dose 4000 µM; top dose inferred
Protocol: as §1

Doxorubicin = compound: COc1cccc2c1C(=O)c1c(O)c3c(c(O)c1C2=O)C[C@@](O)(C(=O)CO)C[C@@H]3O[C@H]1C[C@H](N)[C@H](O)[C@H](C)O1 [Doxorubicin]; settings: top dose 1.024 µM
Protocol: as §1

OSI-027 = compound: COc1cccc2cc(-c3nc([C@H]4CC[C@H](C(=O)O)CC4)n4ncnc(N)c34)[nH]c12 [OSI-027]; settings: top dose 20 µM
Protocol: as §1

Vismodegib = compound: CS(=O)(=O)c1ccc(C(=O)Nc2ccc(Cl)c(-c3ccccn3)c2)c(Cl)c1 [Vismodegib]; settings: top dose 10 µM; top dose inferred
Protocol: as §1

VX-11e = compound: Cc1cnc(Nc2ccc(F)cc2Cl)nc1-c1c[nH]c(C(=O)N[C@H](CO)c2cccc(Cl)c2)c1 [VX-11e]; settings: top dose 5.12 µM; top dose inferred
Protocol: as §1

TG101348 = compound: Cc1cnc(Nc2ccc(OCCN3CCCC3)cc2)nc1Nc1cccc(S(=O)(=O)NC(C)(C)C)c1 [TG101348]; settings: top dose 10.24 µM
Protocol: as §1

UNC1215 = compound: O=C(c1ccc(C(=O)N2CCC(N3CCCC3)CC2)c(Nc2ccccc2)c1)N1CCC(N2CCCC2)CC1 [UNC1215]; settings: top dose 1 µM; top dose inferred
Protocol: as §1

Cell Line | AUC (BMX-IN-1 (QL-XII-61)) | pIC50 (BMX-IN-1 (QL-XII-61)) | AUC (17-AAG) | pIC50 (17-AAG) | AUC (CCT018159) | pIC50 (CCT018159) | AUC (BIX02189) | pIC50 (BIX02189) | AUC (Dimethyloxalylglycine) | pIC50 (Dimethyloxalylglycine) | AUC (Doxorubicin) | pIC50 (Doxorubicin) | AUC (OSI-027) | pIC50 (OSI-027) | AUC (Vismodegib) | pIC50 (Vismodegib) | AUC (VX-11e) | pIC50 (VX-11e) | AUC (TG101348) | pIC50 (TG101348) | AUC (UNC1215) | pIC50 (UNC1215)
CAL-27 (head and neck, adherent) | 0.963 | < 5.00 | 0.695 | 6.65 | 0.845 | 5.13 | 0.963 | < 4.70 | 0.817 | 2.64 | 0.324 | 7.69 | 0.774 | 5.10 | 0.899 | < 5.00 | 0.945 | < 5.29 | 0.87 | 5.01 | 0.97 | < 6.00
CAL-33 (head and neck, adherent) | 0.947 | < 5.00 | 0.884 | < 6.00 | 0.803 | 5.30 | 0.946 | < 4.70 | 0.511 | 3.57 | 0.456 | 7.31 | 0.32 | 6.40 | 0.955 | < 5.00 | 0.971 | < 5.29 | 0.896 | < 4.99 | 0.985 | < 6.00
CAL-62 (thyroid, adherent) | 0.89 | < 5.00 | 0.665 | 6.76 | 0.857 | 5.12 | 0.983 | < 4.70 | 0.682 | 3.11 | 0.413 | 7.43 | 0.496 | 5.91 | 0.988 | < 5.00 | 0.921 | < 5.29 | 0.917 | < 4.99 | 0.983 | < 6.00
CAL-78 (chondrosarcoma, adherent) | 0.981 | < 5.00 | 0.851 | 6.03 | 0.943 | < 5.00 | 0.948 | < 4.70 | 0.824 | 2.55 | 0.901 | < 5.99 | 0.986 | < 4.70 | 0.986 | < 5.00 | 0.985 | < 5.29 | 0.911 | < 4.99 | 0.985 | < 6.00
CAS-1 (glioma, adherent) | 0.936 | < 5.00 | 0.888 | < 6.00 | 0.956 | < 5.00 | 0.925 | < 4.70 | 0.51 | 3.57 | 0.679 | 6.61 | 0.709 | 5.21 | 0.981 | < 5.00 | 0.919 | < 5.29 | 0.757 | 5.32 | 0.977 | < 6.00
CCK-81 (large intestine, adherent) | 0.983 | < 5.00 | 0.925 | < 6.00 | 0.936 | < 5.00 | 0.961 | < 4.70 | 0.954 | < 2.40 | 0.928 | < 5.99 | 0.861 | 4.82 | 0.988 | < 5.00 | 0.852 | 5.44 | 0.9 | < 4.99 | 0.989 | < 6.00
CGTH-W-1 (thyroid, adherent) | 0.971 | < 5.00 | 0.315 | 7.72 | 0.834 | 5.19 | 0.898 | < 4.70 | 0.603 | 3.32 | 0.506 | 7.18 | 0.795 | 5.03 | 0.966 | < 5.00 | 0.986 | < 5.29 | 0.688 | 5.67 | 0.966 | < 6.00
CHSA0108 (chondrosarcoma, adherent) | 0.903 | < 5.00 | 0.851 | 6.02 | 0.834 | 5.10 | 0.86 | < 4.70 | 0.665 | 3.11 | 0.81 | 6.19 | 0.899 | < 4.70 | 0.983 | < 5.00 | 0.874 | < 5.29 | 0.844 | 5.04 | 0.98 | < 6.00
CHSA8926 (chondrosarcoma, adherent) | 0.962 | < 5.00 | 0.959 | < 6.00 | 0.973 | < 5.00 | 0.852 | < 4.70 | 0.964 | < 2.40 | 0.768 | 6.26 | 0.921 | < 4.70 | 0.98 | < 5.00 | 0.89 | < 5.29 | 0.871 | < 4.99 | 0.971 | < 6.00
CL-11 (large intestine, adherent) | 0.983 | < 5.00 | 0.937 | < 6.00 | 0.967 | < 5.00 | 0.985 | < 4.70 | 0.864 | < 2.40 | 0.987 | < 5.99 | 0.908 | < 4.70 | 0.941 | < 5.00 | 0.949 | < 5.29 | 0.987 | < 4.99 | 0.984 | < 6.00
COLO-668 (small cell lung carcinoma, adherent) | 0.965 | < 5.00 | 0.881 | < 6.00 | 0.862 | 5.07 | 0.925 | < 4.70 | 0.356 | 4.00 | 0.557 | 7.04 | 0.778 | 5.09 | 0.989 | < 5.00 | 0.892 | < 5.29 | 0.821 | 5.23 | 0.988 | < 6.00
COLO-800 (melanoma, adherent) | 0.938 | < 5.00 | 0.71 | 6.62 | 0.925 | < 5.00 | 0.967 | < 4.70 | 0.704 | 3.04 | 0.572 | 7.00 | 0.203 | 6.77 | 0.937 | < 5.00 | 0.975 | < 5.29 | 0.757 | 5.47 | 0.985 | < 6.00
COR-L23 (large cell lung carcinoma, adherent) | 0.972 | < 5.00 | 0.821 | 6.25 | 0.845 | 5.16 | 0.928 | < 4.70 | 0.793 | 2.75 | 0.403 | 7.46 | 0.38 | 6.23 | 0.968 | < 5.00 | 0.896 | < 5.29 | 0.817 | 5.26 | 0.984 | < 6.00
COR-L95 (small cell lung carcinoma, adherent) | 0.961 | < 5.00 | 0.915 | < 6.00 | 0.986 | < 5.00 | 0.971 | < 4.70 | 0.639 | 3.19 | 0.768 | 6.35 | 0.654 | 5.44 | 0.987 | < 5.00 | 0.982 | < 5.29 | 0.854 | 4.99 | 0.985 | < 6.00
CP50-MEL-B (melanoma, adherent) | 0.942 | < 5.00 | 0.433 | 7.39 | 0.963 | < 5.00 | 0.967 | < 4.70 | 0.684 | 3.09 | 0.925 | < 5.99 | 0.826 | 4.92 | 0.979 | < 5.00 | 0.852 | 5.41 | 0.988 | < 4.99 | 0.982 | < 6.00
CS1 (bone, adherent) | 0.962 | < 5.00 | 0.655 | 6.75 | 0.869 | < 5.00 | 0.875 | < 4.70 | 0.79 | 2.69 | 0.72 | 6.53 | 0.166 | 6.99 | 0.966 | < 5.00 | 0.954 | < 5.29 | 0.694 | 5.62 | 0.982 | < 6.00
CW-2 (large intestine, adherent) | 0.986 | < 5.00 | 0.931 | < 6.00 | 0.891 | < 5.00 | 0.976 | < 4.70 | 0.977 | < 2.40 | 0.989 | < 5.99 | 0.924 | < 4.70 | 0.987 | < 5.00 | 0.939 | < 5.29 | 0.858 | 5.02 | 0.988 | < 6.00
CaR-1 (large intestine, adherent) | 0.974 | < 5.00 | 0.497 | 7.21 | 0.952 | < 5.00 | 0.964 | < 4.70 | 0.481 | 3.67 | 0.904 | < 5.99 | 0.731 | 5.09 | 0.916 | < 5.00 | 0.978 | < 5.29 | 0.955 | < 4.99 | 0.975 | < 6.00
Calu-3 (lung adenocarcinoma, adherent) | 0.98 | < 5.00 | 0.933 | < 6.00 | 0.927 | < 5.00 | 0.983 | < 4.70 | 0.353 | 4.06 | 0.457 | 7.32 | 0.357 | 6.34 | 0.973 | < 5.00 | 0.983 | < 5.29 | 0.982 | < 4.99 | 0.981 | < 6.00
D-263MG (glioma, adherent) | 0.938 | < 5.00 | 0.443 | 7.38 | 0.936 | < 5.00 | 0.974 | < 4.70 | 0.611 | 3.27 | 0.704 | 6.56 | 0.974 | < 4.70 | 0.962 | < 5.00 | 0.982 | < 5.29 | 0.978 | < 4.99 | 0.969 | < 6.00
D-392MG (glioma, adherent) | 0.902 | < 5.00 | 0.842 | < 6.00 | 0.907 | < 5.00 | 0.868 | < 4.70 | 0.651 | 3.11 | 0.638 | 6.75 | 0.733 | 5.13 | 0.977 | < 5.00 | 0.954 | < 5.29 | 0.703 | 5.53 | 0.975 | < 6.00
D-542MG (glioma, adherent) | 0.954 | < 5.00 | 0.938 | < 6.00 | 0.964 | < 5.00 | 0.982 | < 4.70 | 0.554 | 3.44 | 0.835 | 6.05 | 0.859 | < 4.70 | 0.984 | < 5.00 | 0.982 | < 5.29 | 0.93 | < 4.99 | 0.981 | < 6.00
DBTRG-05MG (glioma, adherent) | 0.947 | < 5.00 | 0.763 | 6.38 | 0.969 | < 5.00 | 0.941 | < 4.70 | 0.526 | 3.53 | 0.513 | 7.15 | 0.633 | 5.51 | 0.979 | < 5.00 | 0.898 | < 5.29 | 0.877 | < 4.99 | 0.973 | < 6.00
